# Source: the supplement of paper PMC8728848
# The other results are listed elsewhere or left out.
# Key:
# Assay in all cases: glycan array binding signal (z-score within array); higher = stronger binding
# Details in all cases: glycan notation: IUPAC condensed, linker removed
# [1] = target: Fuc(a1-2)[GalNAc(a1-3)]Gal(b1-4)Glc
# Method in brief: (§1)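 Columns mapping to the same glycan were averaged after glycan names were converted to IUPAC-condensed notation. The data come from 3228 arrays in the Consortium for Functional Glycomics database, limited to those with an available protein sequence. Binding is reported as a within-array Z-score averaged across arrays of one protein sequence and across linkers.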
# [2] = target: Fuc(a1-2)[GalNAc(a1-3)]Gal(b1-4)GlcNAc
# Method in brief: as §1
# [3] = target: Fuc(a1-2)[GalNAc(a1-3)]Gal(b1-4)GlcNAc(b1-2)Man(a1-3)[Fuc(a1-2)[GalNAc(a1-3)]Gal(b1-4)GlcNAc(b1-2)Man(a1-6)]Man(b1-4)GlcNAc(b1-4)GlcNAc
# Method in brief: as §1
# [4] = target: Fuc(a1-2)[GalNAc(a1-3)]Gal(b1-4)GlcNAc(b1-2)Man(a1-3)[Fuc(a1-2)[GalNAc(a1-3)]Gal(b1-4)GlcNAc(b1-2)Man(a1-6)]Man(b1-4)GlcNAc(b1-4)[Fuc(a1-6)]GlcNAc
# Method in brief: as §1
# [5] = target: Fuc(a1-2)[GalNAc(a1-3)]Gal(b1-4)GlcNAc(b1-3)Gal(b1-4)GlcNAc
# Method in brief: as §1
# [6] = target: Fuc(a1-2)[GalNAc(a1-3)]Gal(b1-4)GlcNAc(b1-3)Gal(b1-4)GlcNAc(b1-3)Gal(b1-4)GlcNAc
# Method in brief: as §1
# [7] = target: Fuc(a1-2)[GalNAc(a1-3)]Gal(b1-4)GlcNAc(b1-3)GalNAc
# Method in brief: as §1
# [8] = target: Fuc(a1-2)[GalNAc(a1-3)]Gal(b1-4)[Fuc(a1-3)]GlcNAc
# Method in brief: as §1
# [9] = target: Fuc(a1-2)[GalNAc(a1-3)]Gal(b1-4)[Fuc(a1-3)]GlcNAc(b1-3)GalNAc
# Method in brief: as §1
# [10] = target: Fuc(a1-2)[GalNAc(a1-4)]Gal(b1-4)GlcNAc
# Method in brief: as §1
# [11] = target: Fuc(a1-2)[GalNAc(b1-3)]Gal
# Method in brief: as §1
# Fuc(a1-3)GlcNAc = target: Fuc(a1-3)GlcNAc
# Method in brief: as §1
# [12] = target: Fuc(a1-3)[Gal(b1-4)]Glc6S
# Method in brief: as §1
# [13] = target: Fuc(a1-3)[Gal(b1-4)]GlcNAc
# Method in brief: as §1
# [14] = target: Fuc(a1-3)[Gal(b1-4)]GlcNAc(b1-2)Man(a1-3)[Fuc(a1-3)[Gal(b1-4)]GlcNAc(b1-2)Man(a1-6)]Man(b1-4)GlcNAc(b1-4)GlcNAc
# Method in brief: as §1
# [15] = target: Fuc(a1-3)[Gal(b1-4)]GlcNAc(b1-2)Man(a1-3)[Fuc(a1-3)[Gal(b1-4)]GlcNAc(b1-2)Man(a1-6)]Man(b1-4)GlcNAc(b1-4)[Fuc(a1-6)]GlcNAc
# Method in brief: as §1
# [16] = target: Fuc(a1-3)[Gal(b1-4)]GlcNAc(b1-3)Gal(b1-3)[Fuc(a1-4)]GlcNAc
# Method in brief: as §1
# [17] = target: Fuc(a1-3)[Gal(b1-4)]GlcNAc(b1-3)GalNAc
# Method in brief: as §1
# [18] = target: Fuc(a1-3)[Gal(b1-4)]GlcNAc(b1-4)Gal(b1-4)[Fuc(a1-3)]GlcNAc
# Method in brief: as §1
# [19] = target: Fuc(a1-3)[Gal(b1-4)]GlcNAc(b1-4)Gal(b1-4)[Fuc(a1-3)]GlcNAc(b1-4)Gal(b1-4)[Fuc(a1-3)]GlcNAc
# Method in brief: as §1
# [20] = target: Fuc(a1-3)[Gal(b1-4)]GlcNAc(b1-6)GalNAc
# Method in brief: as §1
# [21] = target: Fuc(a1-3)[Gal(b1-4)]GlcNAc(b1-6)[Gal(b1-3)GlcNAc(b1-3)]Gal(b1-4)Glc
# Method in brief: as §1
# [22] = target: Fuc(a1-3)[Gal(b1-4)]GlcNAc(b1-6)[Neu5Ac(a2-3)Gal(b1-3)]GalNAc
# Method in brief: as §1
# [23] = target: Fuc(a1-3)[Gal(b1-4)]GlcNAc6S
# Method in brief: as §1
# [24] = target: Fuc(a1-3)[Gal3S(b1-4)]GlcNAc
# Method in brief: as §1
# [25] = target: Fuc(a1-3)[Gal3S(b1-4)]GlcNAc6S
# Method in brief: as §1
# [26] = target: Fuc(a1-3)[GalNAc(b1-4)]GlcNAc
# Method in brief: as §1
# Fuc(a1-4)GlcNAc = target: Fuc(a1-4)GlcNAc
# Method in brief: as §1
# Fuc(b1-3)GlcNAc = target: Fuc(b1-3)GlcNAc
# Method in brief: as §1
# Gal(a1-2)Gal = target: Gal(a1-2)Gal
# Method in brief: as §1
# Gal(a1-3)Gal = target: Gal(a1-3)Gal
# Method in brief: as §1
# Gal(a1-3)Gal(b1-3)GlcNAc = target: Gal(a1-3)Gal(b1-3)GlcNAc
# Method in brief: as §1
# [27] = target: Gal(a1-3)Gal(b1-3)GlcNAc(b1-2)Man(a1-3)[Gal(a1-3)Gal(b1-3)GlcNAc(b1-2)Man(a1-6)]Man(b1-4)GlcNAc(b1-4)GlcNAc
# Method in brief: as §1
# [28] = target: Gal(a1-3)Gal(b1-3)GlcNAc(b1-3)GalNAc
# Method in brief: as §1
# [29] = target: Gal(a1-3)Gal(b1-3)[Fuc(a1-4)]GlcNAc(b1-2)Man(a1-3)[Gal(a1-3)Gal(b1-3)[Fuc(a1-4)]GlcNAc(b1-2)Man(a1-6)]Man(b1-4)GlcNAc(b1-4)GlcNAc
# Method in brief: as §1
# Gal(a1-3)Gal(b1-4)Glc = target: Gal(a1-3)Gal(b1-4)Glc
# Method in brief: as §1
# Gal(a1-3)Gal(b1-4)GlcNAc = target: Gal(a1-3)Gal(b1-4)GlcNAc
# Method in brief: as §1
binder,measurement,setting,value
"UEA-I (Ulex europaeus), P22972 (protein) SDDLSFKFKNFSQNGKDLSFQGDASVIETGVLQLNKVGNNLPDETGGIARYIAPIHIWNCNTGEVASFITSFSFFMETSANPKAATDGLTFFLAPPDSPLRRAGGYFGLFEDTKDNDSSYQTVAVEFDTIGSPVNFDDPGFPHIGIDVNRVKSINAERWNKRYGLNNVANVEIIYEASSKTLTASLTYPSDQTSISVTSIVDLKEILPEWVSVGFSGGTYIGRQATHEVLNWYFTSNLIN",glycan array binding signal (z-score),[1],-0.175
same,glycan array binding signal (z-score),[2],-0.183
same,glycan array binding signal (z-score),[3],-0.181
same,glycan array binding signal (z-score),[4],-0.155
same,glycan array binding signal (z-score),[5],-0.179
same,glycan array binding signal (z-score),[6],-0.1
same,glycan array binding signal (z-score),[7],-0.182
same,glycan array binding signal (z-score),[8],-0.174
same,glycan array binding signal (z-score),[9],-0.149
same,glycan array binding signal (z-score),[10],4.61
same,glycan array binding signal (z-score),[11],-0.168
same,glycan array binding signal (z-score),Fuc(a1-3)GlcNAc,0.763
same,glycan array binding signal (z-score),[12],-0.17
same,glycan array binding signal (z-score),[13],-0.076
same,glycan array binding signal (z-score),[14],-0.182
same,glycan array binding signal (z-score),[15],-0.169
same,glycan array binding signal (z-score),[16],-0.18
same,glycan array binding signal (z-score),[17],-0.172
same,glycan array binding signal (z-score),[18],-0.18
same,glycan array binding signal (z-score),[19],-0.178
same,glycan array binding signal (z-score),[20],-0.166
same,glycan array binding signal (z-score),[21],-0.179
same,glycan array binding signal (z-score),[22],-0.09
same,glycan array binding signal (z-score),[23],-0.173
same,glycan array binding signal (z-score),[24],-0.176
same,glycan array binding signal (z-score),[25],0.023
same,glycan array binding signal (z-score),[26],-0.16
same,glycan array binding signal (z-score),Fuc(a1-4)GlcNAc,0.333
same,glycan array binding signal (z-score),Fuc(b1-3)GlcNAc,-0.178
same,glycan array binding signal (z-score),Gal(a1-2)Gal,-0.167
same,glycan array binding signal (z-score),Gal(a1-3)Gal,-0.179
same,glycan array binding signal (z-score),Gal(a1-3)Gal(b1-3)GlcNAc,-0.18
same,glycan array binding signal (z-score),[27],-0.179
same,glycan array binding signal (z-score),[28],-0.181
same,glycan array binding signal (z-score),[29],-0.185
same,glycan array binding signal (z-score),Gal(a1-3)Gal(b1-4)Glc,-0.172
same,glycan array binding signal (z-score),Gal(a1-3)Gal(b1-4)GlcNAc,-0.186
